Data: the BET-seq Pho4 binding data (Le et al. 2018)
The list shows a part of the results. Values were computed here from the reads of four pooled replicates and scatter widely.

Molecular target: T1, Pho4 (S. cerevisiae) (UniProt P07270)
T1 sequence: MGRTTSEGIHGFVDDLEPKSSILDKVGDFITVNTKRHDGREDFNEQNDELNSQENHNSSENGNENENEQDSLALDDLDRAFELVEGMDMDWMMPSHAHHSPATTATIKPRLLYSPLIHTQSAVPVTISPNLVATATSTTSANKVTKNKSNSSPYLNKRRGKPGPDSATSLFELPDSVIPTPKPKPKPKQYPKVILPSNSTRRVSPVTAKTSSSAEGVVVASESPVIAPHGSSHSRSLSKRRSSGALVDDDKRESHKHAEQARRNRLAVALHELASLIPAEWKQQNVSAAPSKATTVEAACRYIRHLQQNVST
Experiment: relative binding free energy (BET-seq); higher = weaker binding
Conditions: reference: library average

Sequence	relative binding free energy
ATGTACACGTGTAGAG	0.06 kcal/mol
CTGGGCACGTGGTCGT	-0.18 kcal/mol
TGCTGCACGTGTAGGG	0.08 kcal/mol
ATAAGCACGTGTGGGA	0.02 kcal/mol
AATATCACGTGTAGAT	0.27 kcal/mol
TACGGCACGTGGAAGT	-0.01 kcal/mol
TGTGGCACGTGTAATA	0.01 kcal/mol
GTAATCACGTGATGAT	0.23 kcal/mol
AGTGTCACGTGAGGCT	0.07 kcal/mol
GGTGTCACGTGGGTTC	0.06 kcal/mol
GTAAGCACGTGGACTG	-0.05 kcal/mol
TAGTACACGTGGGAGG	-0.08 kcal/mol
GCTTTCACGTGAGGGC	0.38 kcal/mol
AGTGGCACGTGTTGTC	-0.11 kcal/mol
CTTGTCACGTGTTTAT	0.13 kcal/mol
AAGGACACGTGTAAGG	0.26 kcal/mol
GGAATCACGTGTTGCT	0.18 kcal/mol
GTATACACGTGGGCGG	-0.04 kcal/mol
AATGGCACGTGTTCTA	-0.02 kcal/mol
TTGAGCACGTGAGAGG	0.06 kcal/mol
TTTGTCACGTGGTTTA	0.11 kcal/mol
CTTAACACGTGTTGTG	-0.14 kcal/mol
TAAAGCACGTGGCTTG	-0.13 kcal/mol
TCAAACACGTGGTTTG	-0.04 kcal/mol
GTAGGCACGTGTAGGC	0.13 kcal/mol
GGGAGCACGTGAGGCC	0.28 kcal/mol

Sequence	relative binding free energy
AGCTGCACGTGAGTTG	0.14 kcal/mol
AGATGCACGTGGAGTA	-0.04 kcal/mol
GGCTTCACGTGGCGTA	0.16 kcal/mol
TTCAGCACGTGGGGCG	-0.22 kcal/mol
TTTGCCACGTGTTATT	0.03 kcal/mol
TTTGGCACGTGGAGGT	-0.09 kcal/mol
GGGCGCACGTGGTGGA	-0.12 kcal/mol
AAGCGCACGTGATGTG	-0.03 kcal/mol
TGGGACACGTGTATGC	0.11 kcal/mol
CGTTTCACGTGAGGAG	0.22 kcal/mol
TGGAGCACGTGGGCGC	-0.24 kcal/mol
GAGCGCACGTGCTTGG	0.01 kcal/mol
AATCTCACGTGGGGTG	0.19 kcal/mol
TAGCTCACGTGATGTT	0.36 kcal/mol
GGAGGCACGTGGGCGA	-0.22 kcal/mol
TAAGTCACGTGCATTT	0.18 kcal/mol
ATCTGCACGTGGAGGG	0.03 kcal/mol
TCTCGCACGTGTTTTT	0.02 kcal/mol
TGATGCACGTGGTTAG	-0.17 kcal/mol
TTAGGCACGTGCGATA	0.04 kcal/mol
TGATGCACGTGGCGGA	-0.13 kcal/mol
TGTGTCACGTGAGCGG	0.29 kcal/mol
CTGGGCACGTGTTAGG	-0.07 kcal/mol
TGCGGCACGTGTGGCG	-0.13 kcal/mol
TTGTGCACGTGGTCAT	-0.15 kcal/mol
TGCTACACGTGTGGGT	0.13 kcal/mol

Sequence	relative binding free energy
AAAGTCACGTGGTCAT	0 kcal/mol
CGGCTCACGTGTAGGG	0.11 kcal/mol
ATTTACACGTGATCGG	0.18 kcal/mol
AGATTCACGTGGACGG	0.19 kcal/mol
TGCCGCACGTGGGTTG	-0.15 kcal/mol
TGCTGCACGTGGGAAT	-0.07 kcal/mol
TTTAGCACGTGGTGGT	-0.21 kcal/mol
CTTTACACGTGGGGAT	0.13 kcal/mol
TAGGACACGTGTATTA	0.1 kcal/mol
CTGGGCACGTGTATTA	-0.07 kcal/mol
GATTTCACGTGATTTT	0.65 kcal/mol
AATGGCACGTGTTGCG	-0.09 kcal/mol
TGGTCCACGTGGTGTG	-0.08 kcal/mol
GGGGACACGTGGCGTG	-0.02 kcal/mol
AGAGTCACGTGGCGGG	-0.02 kcal/mol
TCGTTCACGTGTAATT	0.44 kcal/mol
TTAGCCACGTGAAGTG	0.12 kcal/mol
TGGGACACGTGTTGCA	-0.03 kcal/mol
AATGTCACGTGCGGCG	-0.04 kcal/mol
TGCGGCACGTGCGATG	0.01 kcal/mol
GGGGACACGTGCTATT	-0.01 kcal/mol
AATTTCACGTGAATCG	0.47 kcal/mol
GTCAGCACGTGGCAGG	-0.1 kcal/mol
TGTTGCACGTGGGGGG	-0.08 kcal/mol
CGTATCACGTGGGCGT	0.12 kcal/mol
GTTTGCACGTGTCAGA	0.06 kcal/mol

Sequence	relative binding free energy
AGTTTCACGTGTTTAA	0.22 kcal/mol
AGGGGCACGTGCAAGA	-0.15 kcal/mol
TTAGCCACGTGGGTGA	-0.2 kcal/mol
AGAGACACGTGTTGTA	0.06 kcal/mol
AGGTACACGTGGTGAA	-0.04 kcal/mol
AATATCACGTGTAGGT	0.07 kcal/mol
TGTTGCACGTGTAGGA	0.07 kcal/mol
GTGTACACGTGACAGT	0.22 kcal/mol
GGTTGCACGTGAGATA	0.36 kcal/mol
TACTGCACGTGGTGTA	-0.18 kcal/mol
GAACGCACGTGGGGCG	-0.15 kcal/mol
TTAGTCACGTGAGACT	0.32 kcal/mol
TATTCCACGTGTGTGT	-0.05 kcal/mol
TGGGTCACGTGCACGT	0.04 kcal/mol
ATAGTCACGTGGCGTG	-0.01 kcal/mol
TAAGGCACGTGTCGTT	-0.23 kcal/mol
CGGGCCACGTGTGTTG	-0.17 kcal/mol
GAGTGCACGTGTGGTC	0 kcal/mol
AGGGCCACGTGGCTTG	-0.12 kcal/mol
GTGAGCACGTGTGCTT	-0.18 kcal/mol
CCAGGCACGTGGGTTT	-0.16 kcal/mol
GTTAACACGTGGTGAA	-0.08 kcal/mol
GATGACACGTGACGGG	0.14 kcal/mol
AGATCCACGTGTGTGT	-0.09 kcal/mol
GTTACCACGTGTTGTG	0 kcal/mol
GGCTTCACGTGTGTAT	0.4 kcal/mol

Sequence	relative binding free energy
TGGTACACGTGGGGTG	-0.14 kcal/mol
AGGTGCACGTGGCAGG	-0.11 kcal/mol
TGGTGCACGTGCTACG	0.03 kcal/mol
TTAGTCACGTGGCGGT	-0.03 kcal/mol
GGATGCACGTGTGTAC	0 kcal/mol
ATTTGCACGTGAATCG	0.25 kcal/mol
TGCATCACGTGGTTAT	0.1 kcal/mol
CATGTCACGTGCGGGT	0.16 kcal/mol
AGATACACGTGGATGT	0.12 kcal/mol
GGGGGCACGTGAAGAA	0.21 kcal/mol
TGTAGCACGTGTCTCG	-0.01 kcal/mol
TTTGGCACGTGAGGAC	0.13 kcal/mol
TGTTGCACGTGTAATT	0.1 kcal/mol
GGGGTCACGTGATCAT	0.21 kcal/mol
CGTATCACGTGTCGGT	0.22 kcal/mol
TATGACACGTGAGAGG	0.22 kcal/mol
TGGTACACGTGGGCCG	-0.15 kcal/mol
GTGGACACGTGAAAAG	0.44 kcal/mol
AAATACACGTGTTGGG	0.1 kcal/mol
ACGTGCACGTGTGGTA	-0.11 kcal/mol
GTTATCACGTGAGACG	0.37 kcal/mol
TTGTACACGTGTCGGA	0.12 kcal/mol
CGGCGCACGTGTGGTA	-0.13 kcal/mol
TTATGCACGTGAAGTC	0.24 kcal/mol
AGGGTCACGTGTAGAA	0.29 kcal/mol
TTGTTCACGTGGTTTT	0.3 kcal/mol

Sequence	relative binding free energy
TTCGTCACGTGAATAG	0.28 kcal/mol
TATGTCACGTGGATGT	0.21 kcal/mol
TTTTACACGTGGTTTT	0.12 kcal/mol
GAGTCCACGTGTGCGG	0.11 kcal/mol
GGTTTCACGTGTTGAT	0.38 kcal/mol
TTGATCACGTGTTTAA	-0.01 kcal/mol
GATCTCACGTGGGGGG	0.27 kcal/mol
GTGAACACGTGGGGAG	-0.13 kcal/mol
AACGTCACGTGGTTTA	0.2 kcal/mol
AGGAACACGTGAGCGG	0.22 kcal/mol
TTATGCACGTGTGTTG	-0.02 kcal/mol
CAATTCACGTGAGTTT	0.45 kcal/mol
GGAGGCACGTGCAGGC	-0.02 kcal/mol
TTTCACACGTGGTCGG	0.15 kcal/mol
CCTTTCACGTGGTGTT	0.25 kcal/mol
TGGGCCACGTGGGTTC	-0.17 kcal/mol
GTCTTCACGTGGGTGT	0.08 kcal/mol
GATAACACGTGTGTTG	0.05 kcal/mol
TCTGACACGTGTGAGG	0.06 kcal/mol
GTCGACACGTGAAGGG	0.39 kcal/mol
TGGTGCACGTGATTTA	0.04 kcal/mol
GGTGGCACGTGAATCT	0.32 kcal/mol
TGATGCACGTGATGAT	0.17 kcal/mol
GGATCCACGTGTATTT	0.3 kcal/mol
GGTGGCACGTGTGATA	0.06 kcal/mol
TCGGGCACGTGAGGTG	0.17 kcal/mol

Sequence	relative binding free energy
GTATACACGTGGGTCA	-0.09 kcal/mol
GCTTGCACGTGGATGG	0.04 kcal/mol
CGTGGCACGTGTGAGC	-0.08 kcal/mol
TTAATCACGTGAGATT	0.32 kcal/mol
ACGTGCACGTGGGCGG	-0.15 kcal/mol
TGAGACACGTGTAGGC	0.04 kcal/mol
TTGGGCACGTGCAAAT	-0.07 kcal/mol
GGGGGCACGTGCTACA	-0.05 kcal/mol
TGACGCACGTGATGTA	0.15 kcal/mol
GGGAACACGTGGGTTC	0.03 kcal/mol
GGAGCCACGTGCAGGT	0.08 kcal/mol
TTGTTCACGTGACTTG	0.36 kcal/mol
TGGTCCACGTGAAGGG	0.2 kcal/mol
TTATGCACGTGGACAG	-0.13 kcal/mol
TCAGTCACGTGATTGG	0.19 kcal/mol
GTGTCCACGTGGTATA	0.12 kcal/mol
CGAGGCACGTGTTGTG	-0.11 kcal/mol
AGTCACACGTGGTCGT	0.09 kcal/mol
ATGGTCACGTGGAGCA	0.07 kcal/mol
GTGAGCACGTGTTGTA	-0.21 kcal/mol
TACAGCACGTGATGTT	0.18 kcal/mol
TGAATCACGTGGGATA	0.15 kcal/mol
CGGGGCACGTGGGTGA	-0.24 kcal/mol
ACTTGCACGTGGGTTA	-0.1 kcal/mol
GATATCACGTGGGGGG	0.08 kcal/mol
TCAGTCACGTGAAGGT	0.31 kcal/mol

Sequence	relative binding free energy
TCTGTCACGTGTCTGA	0.27 kcal/mol
AGTGGCACGTGCGTAA	-0.19 kcal/mol
CTTTTCACGTGATGCT	0.28 kcal/mol
TTTGTCACGTGGATAG	0.09 kcal/mol
TGTCACACGTGGTTGA	0.08 kcal/mol
ATCGTCACGTGGTAGA	0.12 kcal/mol
TAGGTCACGTGGGGAT	0 kcal/mol
GGGTACACGTGTTAGA	0.08 kcal/mol
AGATACACGTGGGCTT	-0.01 kcal/mol
GGTTTCACGTGGATAA	0.2 kcal/mol
GTATGCACGTGGTAGG	-0.01 kcal/mol
TGTTGCACGTGGAAAC	0.2 kcal/mol
TGCTGCACGTGTGGAA	-0.03 kcal/mol
TGGGCCACGTGAGCTG	0.11 kcal/mol
TTATGCACGTGAAAGG	0.22 kcal/mol
TATTTCACGTGAGGAA	0.25 kcal/mol
CCGGCCACGTGGTGGG	-0.06 kcal/mol
AATATCACGTGTTTTC	0.17 kcal/mol
TGAGTCACGTGTTAGA	0.04 kcal/mol
TTTTGCACGTGCTGGC	0.08 kcal/mol
GTAAGCACGTGTGGGC	-0.08 kcal/mol
TTTATCACGTGAGATT	0.37 kcal/mol
TGGGTCACGTGTTGGA	0.21 kcal/mol
TTGAACACGTGGAGTT	0.04 kcal/mol
TTGGACACGTGGGCGC	-0.12 kcal/mol
CGTTACACGTGTGTTG	0.07 kcal/mol

Sequence	relative binding free energy
TGGGGCACGTGCTACG	-0.28 kcal/mol
TGTGACACGTGCTTGG	-0.11 kcal/mol
GTTGACACGTGTTGCT	-0.1 kcal/mol
TGTTTCACGTGATGCT	0.39 kcal/mol
GAAAGCACGTGGGTGG	-0.09 kcal/mol
TGTGGCACGTGGAAAT	0.05 kcal/mol
TGGAACACGTGGGAGC	-0.02 kcal/mol
TGGCGCACGTGGGCGA	-0.25 kcal/mol
ATGTACACGTGGAGTT	0.08 kcal/mol
TGGGGCACGTGGCGCG	-0.25 kcal/mol
GGGGACACGTGGCATA	-0.02 kcal/mol
ATAGTCACGTGATTCG	0.16 kcal/mol
GGGAGCACGTGTGAAA	0 kcal/mol
TGTATCACGTGTTCGA	0.08 kcal/mol
TTACGCACGTGGGGTG	-0.24 kcal/mol
TTGTTCACGTGTCTTG	0.41 kcal/mol
GTGTACACGTGTTCTT	0.04 kcal/mol
TCGTTCACGTGAGTTG	0.47 kcal/mol
TTATGCACGTGCAGTA	-0.03 kcal/mol
CTGATCACGTGTGCGG	0.05 kcal/mol
GAGCTCACGTGTGGTA	0.24 kcal/mol
GCGGCCACGTGGAGGG	-0.12 kcal/mol
